The supplement of paper PMC8007513
Counter-ions that a name gives are not always drawn. ± gives the standard error. In all, about 1,300 compounds went through this assay and about 130 (10%) showed an effect of 50% or more. This is a selection; strong and weak results do not stand in their true shares.

Tested on: Trichoderma virens ATCC 9645
Assay: growth yield (OD600) with compound + IPBC relative to untreated control; higher = less growth inhibition
Settings: compound concentration: 100 uM, IPBC concentration: 200 ng/ml
Method in brief: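 For each 96-well plate, 100 μl aliquots were prepared with Trichoderma virens ATCC 9645 spores suspended at 15,000 spores ml^−1 in potato dextrose broth. The spores had been harvested from potato dextrose agar plates after 7 days. Library compounds were present at 100 μM final, some wells also receiving a biocide at 200 ng ml^−1, and plates were grown at 30 °C with OD600 read on a BioTek EL800 at 40 h and 72 h. Reported growth, relative to the control lacking both agents, is the mean of duplicate screens.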

Structure (SMILES)	growth yield (40 h)	growth yield (72 h)
N/C(=N\C(=O)c1nc(Cl)c(N)nc1N)NCc1ccccc1 [Benzamil hydrochloride] + CCCCNC(=O)OCC#CI [3-iodo-2-propynyl butylcarbamate (IPBC)]	81.5 ± 1.4%	94.28 ± 0.1%
O=C(CCNNC(=O)c1ccncc1)NCc1ccccc1 [Nialamide] + CCCCNC(=O)OCC#CI [3-iodo-2-propynyl butylcarbamate (IPBC)]	94.4%	90.61 ± 0.42%
CSc1nc2cc(Cl)c(Oc3cccc(Cl)c3Cl)cc2[nH]1 [Triclabendazole] + CCCCNC(=O)OCC#CI [3-iodo-2-propynyl butylcarbamate (IPBC)]	66.7 ± 3.2%	120 ± 6.5%
Cc1nc2ccccn2c(=O)c1CCN1CCC(C(=O)c2ccc(F)cc2)CC1 [Pirenperone] + CCCCNC(=O)OCC#CI [3-iodo-2-propynyl butylcarbamate (IPBC)]	90.9 ± 6.3%	93.8 ± 2.9%
NC(=O)c1cnccn1 [Pyrazinamide] + CCCCNC(=O)OCC#CI [3-iodo-2-propynyl butylcarbamate (IPBC)]	90.4 ± 7.5%	95 ± 5%
CC=CC1=C(C(=O)O)N2C(=O)[C@@H](NC(=O)[C@H](N)c3ccc(O)cc3)[C@H]2SC1 [Cefprozil] + CCCCNC(=O)OCC#CI [3-iodo-2-propynyl butylcarbamate (IPBC)]	113 ± 4.9%	103 ± 0.63%
Cc1cc2c(s1)Nc1ccccc1N=C2N1CCN(C)CC1 [Olanzapine] + CCCCNC(=O)OCC#CI [3-iodo-2-propynyl butylcarbamate (IPBC)]	70.4 ± 0.79%	91.6 ± 1.1%
CC(Cc1ccc(O)cc1)NCC(O)c1cc(O)cc(O)c1 (configuration not stated) [Fenoterol hydrobromide] + CCCCNC(=O)OCC#CI [3-iodo-2-propynyl butylcarbamate (IPBC)]	91.7 ± 5.9%	95.4 ± 5%
C1CCc2nnnn2CC1 [Pentylenetetrazole] + CCCCNC(=O)OCC#CI [3-iodo-2-propynyl butylcarbamate (IPBC)]	104 ± 2.9%	102.9 ± 0.73%
CN1CCCN=C1/C=C/c1cccc(O)c1 [Oxantel pamoate] + CCCCNC(=O)OCC#CI [3-iodo-2-propynyl butylcarbamate (IPBC)]	81.2 ± 5.6%	103 ± 3.4%
CC(N)CCCC(C)(C)O (configuration not stated) [Heptaminol hydrochloride] + CCCCNC(=O)OCC#CI [3-iodo-2-propynyl butylcarbamate (IPBC)]	88.63 ± 0.32%	93.4 ± 1.1%
O=C(O)c1cc(/N=N/c2ccc(S(=O)(=O)Nc3ccccn3)cc2)ccc1O [Sulfasalazine] + CCCCNC(=O)OCC#CI [3-iodo-2-propynyl butylcarbamate (IPBC)]	89.7 ± 3.3%	95.9 ± 2.3%
CNCC(O)c1ccc(O)cc1 (racemic) [(+,-)-Synephrine] + CCCCNC(=O)OCC#CI [3-iodo-2-propynyl butylcarbamate (IPBC)]	81.3 ± 3.8%	93.8 ± 6.3%
C/C(=C\C(=O)OCCCCCCCCC(=O)O)C[C@@H]1OC[C@H](C[C@@H]2O[C@H]2[C@@H](C)[C@H](C)O)[C@@H](O)[C@H]1O [Mupirocin] + CCCCNC(=O)OCC#CI [3-iodo-2-propynyl butylcarbamate (IPBC)]	6.51 ± 1.4%	43.4 ± 5.7%
CCc1cccc(CC)c1NC(=O)CN(CC(=O)O)CC(=O)O [Etifenin] + CCCCNC(=O)OCC#CI [3-iodo-2-propynyl butylcarbamate (IPBC)]	87.7 ± 4.1%	94.4 ± 2.3%
CN/C(=N\CCSCc1nc[nH]c1C)NC#N [Cimetidine] + CCCCNC(=O)OCC#CI [3-iodo-2-propynyl butylcarbamate (IPBC)]	85.8 ± 2.9%	92.4 ± 4.3%
CCCCc1ccc2[nH]c(NC(=O)OC)nc2c1 [Parbendazole] + CCCCNC(=O)OCC#CI [3-iodo-2-propynyl butylcarbamate (IPBC)]	27 ± 4.1%	80.2 ± 2.2%
C[C@]12CC[C@@H](O)C[C@@H]1CC[C@@H]1[C@@H]2CC[C@]2(C)C(=O)CC[C@@H]12 [Androsterone] + CCCCNC(=O)OCC#CI [3-iodo-2-propynyl butylcarbamate (IPBC)]	57.82 ± 0.32%	91.5%
Nc1ncnc2c1ncn2C1OC(COP(=O)(O)O)C(O)C1O (configuration not stated) [Adenosine 5'-monophosphate monohydrate] + CCCCNC(=O)OCC#CI [3-iodo-2-propynyl butylcarbamate (IPBC)]	79.4 ± 1.3%	91.2 ± 1.1%
C[C@@H]1C[C@H]2[C@@H]3CCC4=CC(=O)C=C[C@]4(C)[C@@]3(Cl)[C@@H](O)C[C@]2(C)[C@@]1(OC(=O)c1ccco1)C(=O)CCl [Mometasone furoate] + CCCCNC(=O)OCC#CI [3-iodo-2-propynyl butylcarbamate (IPBC)]	86.57 ± 0.79%	87.2 ± 2%

Structure (SMILES)	growth yield (40 h)	growth yield (72 h)
CC(C)(Oc1ccc(CCNC(=O)c2ccc(Cl)cc2)cc1)C(=O)O [Bezafibrate] + CCCCNC(=O)OCC#CI [3-iodo-2-propynyl butylcarbamate (IPBC)]	77.67 ± 0.16%	90.1 ± 0.94%
OCCN1CCN(CCCN2c3ccccc3Sc3ccc(C(F)(F)F)cc32)CC1 [Fluphenazine dihydrochloride] + CCCCNC(=O)OCC#CI [3-iodo-2-propynyl butylcarbamate (IPBC)]	2.86%	2.31 ± 0.21%
c1ccc(CC2=NCCN2)cc1 [Tolazoline hydrochloride] + CCCCNC(=O)OCC#CI [3-iodo-2-propynyl butylcarbamate (IPBC)]	88.16 ± 0.79%	91.3 ± 0.94%
NC(=O)C[S+]([O-])C(c1ccccc1)c1ccccc1 (configuration not stated) [Modafinil] + CCCCNC(=O)OCC#CI [3-iodo-2-propynyl butylcarbamate (IPBC)]	82 ± 3.5%	93.5 ± 2.9%
O=C1c2ccccc2C(=O)C1c1ccccc1 [Phenindione] + CCCCNC(=O)OCC#CI [3-iodo-2-propynyl butylcarbamate (IPBC)]	77.04 ± 0.16%	88.52 ± 0.84%
CC[C@H]1OC(=O)[C@H](C)[C@@H](O[C@H]2C[C@@](C)(OC)[C@@H](O)[C@H](C)O2)[C@H](C)[C@@H](O[C@@H]2O[C@H](C)C[C@H](N(C)C)[C@H]2O)[C@](C)(O)C[C@@H](C)C(=O)[C@H](C)[C@@H](O)[C@]1(C)O [Erythromycin] + CCCCNC(=O)OCC#CI [3-iodo-2-propynyl butylcarbamate (IPBC)]	45.3 ± 0.79%	
Cc1c(Cl)cccc1Nc1ccccc1C(=O)O [Tolfenamic acid] + CCCCNC(=O)OCC#CI [3-iodo-2-propynyl butylcarbamate (IPBC)]	75.1 ± 3.6%	88 ± 3.2%
CCc1ccc(CCOc2ccc(CC3SC(=O)NC3=O)cc2)nc1 (configuration not stated) [Pioglitazone] + CCCCNC(=O)OCC#CI [3-iodo-2-propynyl butylcarbamate (IPBC)]	87.4 ± 7%	90.3 ± 4.5%
C[C@H](N[C@@H](CCc1ccccc1)C(=O)O)C(=O)N1CCC[C@H]1C(=O)O [Enalaprilat dihydrate] + CCCCNC(=O)OCC#CI [3-iodo-2-propynyl butylcarbamate (IPBC)]	85.61 ± 0.48%	87.8 ± 1.1%
CC(=O)[C@@]12O[C@](C)(c3ccccc3)O[C@@H]1C[C@H]1[C@@H]3CCC4=CC(=O)CC[C@]4(C)[C@H]3CC[C@@]12C [Algestone acetophenide] + CCCCNC(=O)OCC#CI [3-iodo-2-propynyl butylcarbamate (IPBC)]	118 ± 2.4%	114 ± 1.5%
C[C@]12CCC(=O)C=C1CC[C@@H]1[C@@H]2C(=O)C[C@@]2(C)[C@H]1CC[C@]2(O)C(=O)CO [Cortisone] + CCCCNC(=O)OCC#CI [3-iodo-2-propynyl butylcarbamate (IPBC)]	84.3 ± 2.1%	92.9 ± 4.4%
COC(=O)[C@H](c1ccccc1Cl)N1CCc2sccc2C1 [Clopidogrel] + CCCCNC(=O)OCC#CI [3-iodo-2-propynyl butylcarbamate (IPBC)]	53.4 ± 0.64%	79.5 ± 0.42%
COCCCC/C(=N\OCCN)c1ccc(C(F)(F)F)cc1 [Fluvoxamine maleate] + CCCCNC(=O)OCC#CI [3-iodo-2-propynyl butylcarbamate (IPBC)]	78.8 ± 1.3%	87.9 ± 2.1%
CCOC(=O)N1CCC(=C2c3ccc(Cl)cc3CCc3cccnc32)CC1 [Loratadine] + CCCCNC(=O)OCC#CI [3-iodo-2-propynyl butylcarbamate (IPBC)]	17.3 ± 4%	58.7 ± 2.5%
C[C@]12CC[C@H](O)C[C@H]1CC[C@@H]1[C@@H]2C[C@@H](O)[C@]2(C)[C@@H](C3=CC(=O)OC3)CC[C@]12O [Digoxigenin] + CCCCNC(=O)OCC#CI [3-iodo-2-propynyl butylcarbamate (IPBC)]	86.6 ± 2.7%	90.72 ± 0.32%
COc1ccc(CC(C)NCC(O)c2ccc(O)c(NC=O)c2)cc1 (configuration not stated) [Formoterol fumarate] + CCCCNC(=O)OCC#CI [3-iodo-2-propynyl butylcarbamate (IPBC)]	99.75 ± 0.32%	96 ± 1.6%
CC(Cc1ccccc1)NCCC(c1ccccc1)c1ccccc1 (configuration not stated) [Prenylamine lactate] + CCCCNC(=O)OCC#CI [3-iodo-2-propynyl butylcarbamate (IPBC)]	68.5 ± 1.1%	94.91 ± 0.73%
CC(C)(C)C(=O)OCOC(=O)[C@@H]1N2C(=O)[C@@H](/N=C/N3CCCCCC3)[C@H]2SC1(C)C [Pivmecillinam hydrochloride] + CCCCNC(=O)OCC#CI [3-iodo-2-propynyl butylcarbamate (IPBC)]	57.8 ± 4.5%	77.2 ± 3.1%
OCC(O)CN1CCN(c2ccccc2)CC1 (racemic) [Dropropizine (R,S)] + CCCCNC(=O)OCC#CI [3-iodo-2-propynyl butylcarbamate (IPBC)]	89.6 ± 6.7%	95.6 ± 4.2%
